Article PMC4336329 (PLoS ONE, 2015)
The whole screen tested about 310,000 compounds, of which about 14,000 (4.5%) showed an effect of 50% or more. The effect is printed as a negative number. Some of the results follow.

target: human ether-à-go-go-related gene (hERG) potassium channel (human, UniProt Q12809); experiment: primary screen, population patch clamp on CHO cells stably expressing hERG
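Further: peak tail current of the secondary pulse compared with the same well before compound.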

Chain of human ether-à-go-go-related gene (hERG) potassium channel (Q12809 whole entry, looked up): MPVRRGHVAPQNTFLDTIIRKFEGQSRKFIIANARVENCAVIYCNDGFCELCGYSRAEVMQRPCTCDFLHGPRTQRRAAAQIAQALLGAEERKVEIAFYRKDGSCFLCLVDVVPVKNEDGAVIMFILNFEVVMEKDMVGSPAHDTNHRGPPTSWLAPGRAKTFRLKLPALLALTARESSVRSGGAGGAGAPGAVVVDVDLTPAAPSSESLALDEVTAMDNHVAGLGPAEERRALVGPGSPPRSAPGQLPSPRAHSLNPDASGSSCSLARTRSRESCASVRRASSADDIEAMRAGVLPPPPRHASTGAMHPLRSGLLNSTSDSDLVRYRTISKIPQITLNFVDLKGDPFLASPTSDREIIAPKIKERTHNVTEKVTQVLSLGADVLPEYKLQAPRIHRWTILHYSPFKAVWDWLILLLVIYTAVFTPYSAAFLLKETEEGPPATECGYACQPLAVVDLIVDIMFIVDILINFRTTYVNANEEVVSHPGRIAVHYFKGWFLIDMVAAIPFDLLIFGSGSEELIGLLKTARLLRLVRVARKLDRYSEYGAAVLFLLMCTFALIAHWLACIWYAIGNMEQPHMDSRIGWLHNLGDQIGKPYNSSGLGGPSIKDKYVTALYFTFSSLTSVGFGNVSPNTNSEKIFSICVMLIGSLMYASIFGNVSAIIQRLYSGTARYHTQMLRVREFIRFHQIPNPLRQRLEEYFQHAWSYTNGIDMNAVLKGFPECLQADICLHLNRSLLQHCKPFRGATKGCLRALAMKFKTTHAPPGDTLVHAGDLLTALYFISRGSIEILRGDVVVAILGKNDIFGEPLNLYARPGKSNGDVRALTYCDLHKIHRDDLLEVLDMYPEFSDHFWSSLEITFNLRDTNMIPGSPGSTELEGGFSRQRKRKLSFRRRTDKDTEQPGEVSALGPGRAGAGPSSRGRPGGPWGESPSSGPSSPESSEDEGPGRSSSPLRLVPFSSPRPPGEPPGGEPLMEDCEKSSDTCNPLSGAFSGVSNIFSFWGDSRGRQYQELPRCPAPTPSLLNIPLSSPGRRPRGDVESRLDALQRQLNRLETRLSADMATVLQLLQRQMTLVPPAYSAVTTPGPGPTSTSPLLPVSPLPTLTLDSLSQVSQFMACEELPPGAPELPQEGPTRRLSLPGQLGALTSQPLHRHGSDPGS

Structure (SMILES)	hERG current change (%, negative = inhibition) at 10uM [%]
Cc1ccc(C(C(=O)NCc2ccccc2)N(Cc2ccco2)C(=O)c2snc(C(N)=O)c2N)o1 (stereo not drawn)	9.09
CCCCN1C(=O)NC(c2ccc(OC)cc2)C(C(=O)OCc2ccccc2)=C1C (stereo not drawn)	-0.628
CC(C)(C)C(=O)Nc1ccc(C(=O)NCc2cccnc2)cc1	-11.3
Cc1ccc2nc(SCC(=O)Nc3ccc4c(c3)CCC4)[nH]c2c1	8.84
Cc1ccc(S(=O)(=O)c2nc(S(=O)(=O)c3ccc(C)cc3)c(NCc3ccco3)s2)cc1	12.9
NS(=O)(=O)c1ccc(CNC(=O)/C=C/c2ccco2)cc1	-1.83
CCc1ccc2c(c1)cc(CN(C(=S)Nc1ccccc1C)C1CC1)c1nnnn12	-3.98
COc1ccc(OC)c(C(=O)COC(=O)c2ccccc2O)c1	1.19
COCCNC(=O)c1cnn2c(C(F)F)cc(-c3ccc(C)cc3)nc12	-21.3
O=C(/C=C/c1ccco1)Nc1nc(-c2ccccn2)cs1	5.46
CCN(C(=O)Cn1c(=O)oc2ccccc21)c1c(N)n(Cc2ccccc2)c(=O)[nH]c1=O	6.64
Cc1cccc(C(=O)NCC2CCN(C(=O)c3cccc(C)c3)CC2)c1	-51.2
CN(C(=O)COC(=O)c1cccnc1Nc1ccccc1F)C1CCS(=O)(=O)C1 (stereo not drawn)	-29
COc1ccc(CN2CCN(C(=O)CC(C)C)CC2)c2ccccc12	-6.55
O=C(CN1CCN(C(c2ccccc2)c2ccccc2)CC1)N1CCOCC1.O=C(O)C(=O)O	-22.3
CCCCc1ccc(-c2c(C#N)c(N)nc3c2CCCC3)s1	3.9
CCc1noc(C)c1C(=O)N1CCN(S(=O)(=O)c2ccc(Cl)s2)CC1	-13.5
CC(C)c1ccc(C(=O)NC2=NCCS2)cc1	-2.13
O=C(COc1cccc2cccnc12)N1CCc2ccccc21	-5.77
COc1ccc(CC(=O)NNC(=O)CSc2nc(C)c(C)c(=O)[nH]2)cc1	13.7
Cl.O=[N+]([O-])c1ccc2ncnc(N3CCN(Cc4ccc5c(c4)OCO5)CC3)c2c1	-24.6
CC1CCCC(C)N1NC(=O)Cc1ccccc1 (stereo not drawn)	8.75
COC(=O)C(C)Oc1ccc(Cc2ncc(C(F)(F)F)cc2Cl)cc1 (stereo not drawn)	7.4

Structure (SMILES)	hERG current change (%, negative = inhibition) at 10uM [%]
O=C(Cc1cc(=O)[nH]c(=O)[nH]1)N1CCC(Cc2ccccc2)CC1	4.05
O=C(CC(C(=O)NCc1ccccc1)c1nc2ccccc2c(=O)[nH]1)NCc1ccccc1 (stereo not drawn)	-0.509
O=C(c1ccc2ccccc2c1)N1CCN(c2ccccc2)CC1	-16.4
CCOC(=O)C1(CCOC)CCN(Cc2ccncc2)CC1	8.26
Cn1c(NN)nc2c1c(=O)n(Cc1ccccc1)c(=O)n2C	11.1
Cc1ccc2[nH]c(=O)c(CN(CCCO)C(C)c3nnnn3Cc3ccco3)cc2c1 (stereo not drawn)	1.37
CC1SCC(=O)N(CC(=O)NCc2ccccc2)C1=O (stereo not drawn)	20.4
O=C(c1ccco1)N(CCC(c1ccccc1)c1ccco1)Cc1ccc(F)cc1 (stereo not drawn)	-23.7
CC1(C)Cc2c(cnn2-c2cccc(F)c2)C(NC(=O)c2csnn2)C1 (stereo not drawn)	-78.3
CCNC(=O)c1ccc(C2SCC(=O)N2Cc2ccco2)cc1 (stereo not drawn)	1.32
Cc1ccc(NC(=O)NC2CC(=O)N(c3ccc4c(c3)OCCO4)C2)cc1 (stereo not drawn)	15.5
O=S(=O)(NCc1cc(-c2ccccc2)no1)c1ccccc1Cl	12.4
CC1(C)Nc2ccccc2C(=O)N1c1ccccc1	20.5
O=C(O)c1cccc(NC(CNS(=O)(=O)c2ccc(Cl)cc2)c2ccccc2)c1 (stereo not drawn)	16.5
CCC(Oc1ccccc1)C(=O)Nc1nnc(C(F)(F)F)s1 (stereo not drawn)	6.98
O=C(O)[C@H]1CCC(=O)N1Cc1ccco1	4.59
CCOC(=O)C1C(=O)NC(N2CCCCC2)=NC1c1ccco1 (stereo not drawn)	8.22
Cn1cc(C(=O)NCc2ccccc2F)cn1	13.2
CCCOc1ccc2c(C)c(CC(=O)OC)c(=O)oc2c1	-22.7
CCOCCc1nnc(NC(=O)c2cccs2)s1	5.54
CC1CCN(c2nc(-c3ccco3)c3c(c2C#N)CC(C)(C)OC3)CC1	8.62
COc1ccccc1CCNC(=O)CNC(=O)Cc1cccc2ccccc12	-1.6
S=C(NCCCc1ccccc1)Nc1ccccc1Cl	2.38

Structure (SMILES)	hERG current change (%, negative = inhibition) at 10uM [%]
O=C(N/N=C/c1ccc(N2CCOCC2)s1)c1ccccc1Cl	-4.31
C[N+](C)(C)CCOC(=O)C1(c2ccccc2)CCCC1.[I-]	9.34
O=C(Nc1ccncc1)c1ccc(Cl)c(S(=O)(=O)N2CCc3ccccc32)c1	-16.9
CCC(CC)C(=O)Nc1cccc(/C(C)=N/NC(=O)c2ccccc2Cl)c1	6.73
COc1ccc(OCCCC(=O)Nc2ccc(N3CCOCC3)cc2)cc1	19.8
Cn1c(=O)c2c(nc(CN3CCN(C(=O)c4ccco4)CC3)n2Cc2ccc(Cl)cc2)n(C)c1=O	-64.8
O=C(O)CCCNC(=O)Cc1ccccc1	5.08
O=C(O)Cc1ccc(NS(=O)(=O)c2ccccc2Cl)cc1	24.4
CC(C)CCC(O)(CCC(C)C)C(=O)NNc1ccccc1	-0.649
CCN(CC(=O)N1CCN(C)CC1)S(=O)(=O)c1ccc(Cl)cc1	-5.94
O=C1C2CC=C(Cl)CC2C(=O)N1CNc1ccccn1 (stereo not drawn)	15.7
COc1ccc(Cl)cc1NC(=O)CN(C)CC(=O)Nc1ccc(Br)cc1	-7.27
COc1ccccc1C(=O)NCC(c1cccnc1)N(C)C (stereo not drawn)	3.5
CC(=O)c1cccc(N=C2NC(=O)C(CO)(CO)S2)c1	-2.3
CC(C)NC(=O)NS(=O)(=O)c1cnccc1N1CCCCC1	15.1
CCOC(=O)C1=C(CC)Nc2ccccc2N=C1NC(=O)c1cccc(S(=O)(=O)N2CCOCC2)c1	-25.9
O=C(Nc1ccc2c(c1)OCO2)C1CCN(S(=O)(=O)c2ccc3c(c2)OCCO3)CC1	7.45
COc1ccc(CNC(=O)COc2cc(O)c3c(c2)OC(C)(C)CC3=O)cc1	-27.5
Cc1cccc(-n2c(O)c(C=NC34CN5CN(CN(C5)C3)C4)c(=O)[nH]c2=O)c1	8.4
CCOC(=O)Nc1cc(NC(=O)OCC)c(C)nc1C	-7.11
CC(Oc1cc2oc(=O)c3c(c2cc1Cl)CCC3)C(=O)N1C[C@H]2C[C@@H](C1)c1cccc(=O)n1C2 (stereo partly drawn)	-10.9
Cc1ccccc1N1CCN(Cc2cccc(C(=O)O)c2)CC1.Cl	1.27
CS(=O)(=O)N1CC(C(=O)NC2CC2)Oc2ccc(Cl)cc21 (stereo not drawn)	0.0647

Structure (SMILES)	hERG current change (%, negative = inhibition) at 10uM [%]
Cc1nn(-c2ccccc2)c(Cl)c1/C=N\NC(=O)c1cnccn1	-5
CC(=O)Nc1ccc(NC(=O)c2cc(=O)c3ccccc3o2)cc1	12.2
CCOC(=O)/C(C)=N/NC(=O)c1ccc([N+](=O)[O-])cc1	3.05
CCN(C(=O)CSc1nc(-c2ccccc2)cn1N)c1c(N)n(Cc2ccccc2)c(=O)[nH]c1=O	-0.319
O=C(NCC(c1ccc(F)cc1)N1CCOCC1)c1cccnc1Sc1ccccc1Cl (stereo not drawn)	-14.9
CC1=CC(=C(C#N)c2nc3ccccc3s2)C=C(C)N1CC1CCCO1 (stereo not drawn)	7.19
CCOC(=O)N1CCC(NC(=O)CN(C)S(=O)(=O)c2cc3c(cc2Cl)NC(=O)CO3)CC1	-3.47
COc1ccc(CNC(=O)c2ccc(Cn3cc(Cl)cn3)o2)cc1	-27.9
CC(Sc1nnnn1C)C(=O)Nc1ccc(Oc2ccccc2)cc1 (stereo not drawn)	-16.2
Cc1ccccc1NC(=O)Cn1c(=O)sc2ccccc21	-0.661
COc1ccc(Br)cc1C(=O)O	-12.2
CC(=O)c1c(N2CCOCC2)nc(=S)n(Cc2ccccc2)c1C	-17.5
Cn1c(=O)c2c(SC3CCCC3)nc(C3CC3)nc2n(C)c1=O	18.8
Cl.OC(CNCCCN1CCCCC1)COc1ccccc1 (stereo not drawn)	-4.25
Cc1ccc(S(=O)(=O)N2CCOC2CNC(=O)C(=O)NCCc2ccc(S(N)(=O)=O)cc2)cc1 (stereo not drawn)	-12.7
CC(C)CCNC(=O)C1CC(=O)N(CCc2ccccc2)C1 (stereo not drawn)	5.93
O=C(CNS(=O)(=O)c1cccc2nsnc12)NC1CCCCC1	5.59
Cc1ccc(C(=O)O/N=C2\CCCc3ccccc32)cc1	8.69
COc1cccc(CN(C)CC(=O)NCc2ccccc2Cl)c1OC	-7.66
Cc1ccc(OCc2cc(C(=O)NCCc3cccnc3)no2)cc1C	-34.6
COCCNC(=O)c1onc(CSc2ccccc2)c1C(=O)O	7.09
